In the supplement of paper PMC4967469:

compound: CC(C)=CC[C@@H](O)C1=CC(=O)c2c(O)ccc(O)c2C1=O [Shikonin]; assay: Viability of human cancer cell lines after 72 h of drug (GDSC screen); conditions: top dose 16 µM; top dose inferred
Description: (§1)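 Human cancer cell lines in 384-well plates, medium with 10% serum, drug for 72 h over a 256-fold dose range (nine 2-fold or five 4-fold steps up to the top dose). Adherent lines were fixed and stained with the nucleic acid dye Syto60, suspension lines read with resazurin; signal relative to control wells, capped at 0 and 100%. One two-parameter sigmoid per drug and line, fitted in a mixed model over all curves with the slope shared within a line.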

| Cell Line | AUC | IC50 |
| --- | --- | --- |
| HSC-39 (stomach, suspension) | 0.99 | > 16 µM |
| HUTU-80 (digestive system, adherent) | 0.369 | 0.467 µM |
| IST-MEL1 (melanoma, adherent) | 0.724 | 4.98 µM |
| JJN-3 (haematopoietic neoplasm, suspension) | 0.368 | 0.464 µM |
| K5 (thyroid, adherent) | 0.452 | 0.745 µM |
| KCL-22 (chronic myeloid leukaemia, suspension) | 0.303 | 0.312 µM |
| KELLY (neuroblastoma, adherent) | 0.39 | 0.515 µM |
| KGN (ovary, adherent) | 0.515 | 1.11 µM |
| KINGS-1 (glioma, adherent) | 0.759 | 7.63 µM |
| KM12 (large intestine, adherent) | 0.452 | 0.73 µM |
| KNS-42 (glioma, adherent) | 0.701 | 4.15 µM |
| KP-N-YN (neuroblastoma, adherent) | 0.759 | 6.09 µM |
| KURAMOCHI (ovary, adherent) | 0.657 | 2.93 µM |
| L-428 (Hodgkin lymphoma, suspension) | 0.508 | 1.05 µM |
| LAN-6 (neuroblastoma, adherent) | 0.677 | 3.44 µM |
| LB373-MEL-D (melanoma, adherent) | 0.613 | 2.03 µM |
| LB771-HNC (head and neck, adherent) | 0.748 | 6.3 µM |
| LB831-BLC (bladder, adherent) | 0.535 | 1.25 µM |
| LB2518-MEL (melanoma, adherent) | 0.661 | 2.88 µM |
| LP-1 (myeloma, suspension) | 0.423 | 0.639 µM |

compound: CCNc1cc(NC2CCC(O)CC2)nc(Nc2ccc3c(ccn3Cc3ccccc3)c2)n1 [CGP-082996 (CINK4)]; assay: as above; conditions: top dose 5.12 µM; top dose inferred
Description: as §1

| Cell Line | AUC | IC50 |
| --- | --- | --- |
| HSC-39 (stomach, suspension) | 0.975 | > 5.12 µM |
| HUTU-80 (digestive system, adherent) | 0.851 | 2.93 µM |
| IST-MEL1 (melanoma, adherent) | 0.839 | 4.52 µM |
| JJN-3 (haematopoietic neoplasm, suspension) | 0.963 | > 5.12 µM |
| K5 (thyroid, adherent) | 0.976 | > 5.12 µM |
| KCL-22 (chronic myeloid leukaemia, suspension) | 0.938 | > 5.12 µM |
| KELLY (neuroblastoma, adherent) | 0.989 | > 5.12 µM |
| KGN (ovary, adherent) | 0.872 | > 5.12 µM |
| KINGS-1 (glioma, adherent) | 0.869 | > 5.12 µM |
| KM12 (large intestine, adherent) | 0.98 | > 5.12 µM |
| KNS-42 (glioma, adherent) | 0.905 | > 5.12 µM |
| KP-N-YN (neuroblastoma, adherent) | 0.946 | > 5.12 µM |
| KURAMOCHI (ovary, adherent) | 0.859 | > 5.12 µM |
| L-428 (Hodgkin lymphoma, suspension) | 0.966 | > 5.12 µM |
| LAN-6 (neuroblastoma, adherent) | 0.966 | > 5.12 µM |
| LB373-MEL-D (melanoma, adherent) | 0.952 | > 5.12 µM |
| LB771-HNC (head and neck, adherent) | 0.953 | > 5.12 µM |
| LB831-BLC (bladder, adherent) | 0.904 | > 5.12 µM |
| LB2518-MEL (melanoma, adherent) | 0.944 | > 5.12 µM |
| LP-1 (myeloma, suspension) | 0.955 | > 5.12 µM |

compound: CNC(=O)c1ccc(Nc2cc(Nc3ccccc3S(=O)(=O)C(C)C)c3cc[nH]c3n2)nc1 [HG-5-113-01]; assay: as above; conditions: top dose 10 µM; top dose inferred
Description: as §1

| Cell Line | AUC | IC50 |
| --- | --- | --- |
| HSC-39 (stomach, suspension) | 0.617 | 1.25 µM |
| HUTU-80 (digestive system, adherent) | 0.659 | 1.59 µM |
| IST-MEL1 (melanoma, adherent) | 0.757 | 4.05 µM |
| JJN-3 (haematopoietic neoplasm, suspension) | 0.776 | 3.27 µM |
| K5 (thyroid, adherent) | 0.722 | 2.58 µM |
| KCL-22 (chronic myeloid leukaemia, suspension) | 0.778 | 3.4 µM |
| KELLY (neuroblastoma, adherent) | 0.734 | 2.69 µM |
| KGN (ovary, adherent) | 0.742 | 3.64 µM |
| KINGS-1 (glioma, adherent) | 0.864 | > 10 µM |
| KM12 (large intestine, adherent) | 0.778 | 4.42 µM |
| KNS-42 (glioma, adherent) | 0.811 | 6.63 µM |
| KP-N-YN (neuroblastoma, adherent) | 0.682 | 2.13 µM |
| KURAMOCHI (ovary, adherent) | 0.866 | > 10 µM |
| L-428 (Hodgkin lymphoma, suspension) | 0.901 | > 10 µM |
| LAN-6 (neuroblastoma, adherent) | 0.874 | > 10 µM |
| LB373-MEL-D (melanoma, adherent) | 0.894 | > 10 µM |
| LB771-HNC (head and neck, adherent) | 0.77 | 4.75 µM |
| LB831-BLC (bladder, adherent) | 0.843 | 7.24 µM |
| LB2518-MEL (melanoma, adherent) | 0.893 | > 10 µM |
| LP-1 (myeloma, suspension) | 0.85 | 5.67 µM |

compound: COc1cc(-c2nn([C@H]3CC[C@H](N4CCN(C(C)=O)CC4)CC3)c3ncnc(N)c23)ccc1NC(=O)c1cc2ccccc2n1C [A-770041]; assay: as above; conditions: top dose 5.12 µM; top dose inferred
Description: as §1

| Cell Line | AUC | IC50 |
| --- | --- | --- |
| HSC-39 (stomach, suspension) | 0.983 | > 5.12 µM |
| HUTU-80 (digestive system, adherent) | 0.73 | 1.26 µM |
| IST-MEL1 (melanoma, adherent) | 0.609 | 0.678 µM |
| JJN-3 (haematopoietic neoplasm, suspension) | 0.968 | > 5.12 µM |
| K5 (thyroid, adherent) | 0.884 | > 5.12 µM |
| KCL-22 (chronic myeloid leukaemia, suspension) | 0.66 | 0.82 µM |
| KELLY (neuroblastoma, adherent) | 0.986 | > 5.12 µM |
| KGN (ovary, adherent) | 0.62 | 0.734 µM |
| KINGS-1 (glioma, adherent) | 0.8 | 3.67 µM |
| KM12 (large intestine, adherent) | 0.958 | > 5.12 µM |
| KNS-42 (glioma, adherent) | 0.905 | > 5.12 µM |
| KP-N-YN (neuroblastoma, adherent) | 0.941 | > 5.12 µM |
| KURAMOCHI (ovary, adherent) | 0.634 | 0.797 µM |
| L-428 (Hodgkin lymphoma, suspension) | 0.959 | > 5.12 µM |
| LAN-6 (neuroblastoma, adherent) | 0.949 | > 5.12 µM |
| LB373-MEL-D (melanoma, adherent) | 0.907 | > 5.12 µM |
| LB771-HNC (head and neck, adherent) | 0.849 | > 5.12 µM |
| LB831-BLC (bladder, adherent) | 0.597 | – |
| LB2518-MEL (melanoma, adherent) | 0.96 | > 5.12 µM |
| LP-1 (myeloma, suspension) | 0.765 | 1.58 µM |

compound: COc1cc(N2CCN(C)CC2)ccc1Nc1ncc2c(n1)N(C)c1ccccc1C(=O)N2C [XMD8-85]; assay: as above; conditions: top dose 8 µM; top dose inferred
Description: as §1

| Cell Line | AUC | IC50 |
| --- | --- | --- |
| HSC-39 (stomach, suspension) | 0.966 | > 8 µM |
| HUTU-80 (digestive system, adherent) | 0.913 | > 8 µM |
| IST-MEL1 (melanoma, adherent) | 0.852 | > 8 µM |
| JJN-3 (haematopoietic neoplasm, suspension) | 0.915 | > 8 µM |
| K5 (thyroid, adherent) | 0.926 | > 8 µM |
| KCL-22 (chronic myeloid leukaemia, suspension) | 0.903 | 7.57 µM |
| KELLY (neuroblastoma, adherent) | 0.957 | > 8 µM |
| KGN (ovary, adherent) | 0.758 | 3.34 µM |
| KINGS-1 (glioma, adherent) | 0.951 | > 8 µM |
| KM12 (large intestine, adherent) | 0.858 | 7.52 µM |
| KNS-42 (glioma, adherent) | 0.893 | > 8 µM |
| KP-N-YN (neuroblastoma, adherent) | 0.986 | > 8 µM |
| KURAMOCHI (ovary, adherent) | 0.948 | > 8 µM |
| L-428 (Hodgkin lymphoma, suspension) | 0.985 | > 8 µM |
| LAN-6 (neuroblastoma, adherent) | 0.877 | > 8 µM |
| LB373-MEL-D (melanoma, adherent) | 0.967 | > 8 µM |
| LB771-HNC (head and neck, adherent) | 0.889 | > 8 µM |
| LB831-BLC (bladder, adherent) | 0.927 | > 8 µM |
| LB2518-MEL (melanoma, adherent) | 0.889 | > 8 µM |
| LP-1 (myeloma, suspension) | 0.936 | > 8 µM |

compound: Cc1cc(N2CCOCC2)cc2[nH]c(-c3c(NC[C@@H](O)c4cccc(Cl)c4)cc[nH]c3=O)nc12 [BMS-536924]; assay: as above; conditions: top dose 4 µM; screen: GDSC drug entry 1091; top dose inferred
Description: as §1

| Cell Line | AUC | IC50 |
| --- | --- | --- |
| HSC-39 (stomach, suspension) | 0.802 | 1.65 µM |
| HUTU-80 (digestive system, adherent) | 0.912 | > 4 µM |
| IST-MEL1 (melanoma, adherent) | 0.964 | > 4 µM |
| JJN-3 (haematopoietic neoplasm, suspension) | 0.965 | > 4 µM |
| K5 (thyroid, adherent) | 0.922 | > 4 µM |
| KCL-22 (chronic myeloid leukaemia, suspension) | 0.991 | > 4 µM |
| KELLY (neuroblastoma, adherent) | 0.861 | 2.89 µM |
| KGN (ovary, adherent) | 0.962 | > 4 µM |
| KINGS-1 (glioma, adherent) | 0.959 | > 4 µM |
| KM12 (large intestine, adherent) | 0.748 | 1.39 µM |
| KNS-42 (glioma, adherent) | 0.958 | > 4 µM |
| KURAMOCHI (ovary, adherent) | 0.913 | > 4 µM |
| L-428 (Hodgkin lymphoma, suspension) | 0.992 | > 4 µM |
| LAN-6 (neuroblastoma, adherent) | 0.835 | 3.34 µM |
| LB373-MEL-D (melanoma, adherent) | 0.971 | > 4 µM |
| LB771-HNC (head and neck, adherent) | 0.703 | 1.09 µM |
| LB831-BLC (bladder, adherent) | 0.929 | > 4 µM |
| LB2518-MEL (melanoma, adherent) | 0.943 | > 4 µM |
| LP-1 (myeloma, suspension) | 0.918 | > 4 µM |

same assay, conditions: top dose 5.12 µM; screen: GDSC drug entry 62

| Cell Line | AUC | IC50 |
| --- | --- | --- |
| HSC-39 (stomach, suspension) | 0.69 | 0.997 µM |
| HUTU-80 (digestive system, adherent) | 0.578 | 0.503 µM |
| IST-MEL1 (melanoma, adherent) | 0.822 | 3.78 µM |
| JJN-3 (haematopoietic neoplasm, suspension) | 0.867 | 3.29 µM |
| K5 (thyroid, adherent) | 0.749 | 1.6 µM |
| KCL-22 (chronic myeloid leukaemia, suspension) | 0.94 | > 5.12 µM |
| KELLY (neuroblastoma, adherent) | 0.911 | > 5.12 µM |
| KGN (ovary, adherent) | 0.65 | 0.916 µM |
| KINGS-1 (glioma, adherent) | 0.865 | > 5.12 µM |
| KM12 (large intestine, adherent) | 0.272 | 0.0671 µM |
| KNS-42 (glioma, adherent) | 0.919 | > 5.12 µM |

A lower IC50 marks a more sensitive line; where the fit passes the top or lowest dose, that dose stands as a limit. AUC sums up the same curve from the lowest dose to the 256-fold higher top dose; it is 1 without any effect and falls as sensitivity rises. An inferred top dose was calculated from the reported fits. For some of these results: Where an entry number is given, a second screen of the drug exists; the two often differ.
